# Measured values: PMC10726135
# This is one part of the list. At the low end of the ranking, values are background and their order means little. The protein was read in a cell extract, so binding may be indirect.
# Target: T1, HNF4alpha2 (COS-7 nuclear extract) (UniProt P41235)
# T1 sequence: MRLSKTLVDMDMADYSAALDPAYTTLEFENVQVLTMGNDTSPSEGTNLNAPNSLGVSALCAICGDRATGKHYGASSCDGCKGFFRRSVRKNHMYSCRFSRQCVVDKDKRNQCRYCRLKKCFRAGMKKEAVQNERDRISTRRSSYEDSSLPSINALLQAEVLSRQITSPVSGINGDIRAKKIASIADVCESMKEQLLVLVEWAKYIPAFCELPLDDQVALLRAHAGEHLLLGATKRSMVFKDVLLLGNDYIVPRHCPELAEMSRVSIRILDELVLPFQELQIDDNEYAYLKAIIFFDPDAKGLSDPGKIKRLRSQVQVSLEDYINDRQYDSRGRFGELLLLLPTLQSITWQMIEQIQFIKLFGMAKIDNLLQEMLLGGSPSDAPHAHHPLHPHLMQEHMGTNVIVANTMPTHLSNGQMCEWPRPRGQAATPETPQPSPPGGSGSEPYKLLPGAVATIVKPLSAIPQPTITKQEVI
# Assay: protein-binding microarray
# Details: COS-7 nuclear extract on double-stranded Agilent 4x180k PBM; binding buffer, salt, pH and temperature not given; high values mean tight binding; double strand, one strand shown; sequences stand for … in …GCCTAGGGAGATTAGAGTATCGGTCGA
row,Sequence,binding signal (log2 normalized intensity)
1,ACATACAACCATCAAAGGTCACTTTACAGA,2.46
2,GCTTGAGGCCAGCTCATAGGGATCAGATAA,-1.16
3,TCCAAATGATAATGCCAAGGACTGAAAGAA,-1.02
4,CCTGGGCTGGAAAGGCCACCACAAACCCTT,-1.13
5,CCATTTTGCAATTGACAAATGGCTTGTGCT,-1.26
6,AAAATAGGGTAGTTTGGAGATGCCGTTAAG,-0.322
7,GGACTTTACACAGACCTTTACCCACGGTCA,2.26
8,CCTCCCAGAGCATTGTTTATTGTTGCTGAT,1.82
9,CGCGTCGAACTAGCTTGGTGCAGGGGCGGG,-1.07
10,CATGTAACTGCTATTGGTTGTCAGACTGGT,1.95
11,CACATACACCTGCGTGTACTAAGGTCTTAA,1.12
12,CTTCCATTGTGATTCCTGTGATACCTTCTT,1.89
13,GCTACTGTGGTTCCCAAGAAGAGCCCAGAC,-1.12
14,GACTGATAAGGCTAAGTGGAGGATTTGGGT,-0.887
15,GCACAGGGTTGAGTGGTGACTGAAGTCCAA,2.02
16,CCACGCACTCGCCTGACTCCCTGACGCCAT,-1.12
17,CTAAAGTCCAAAGTCTCAACTAAGTGTTAT,4.29
18,TTTGTGTGTTTAATGTTTTCATTCTGATTT,1.32
19,AGGAGAATCGCTTGAACCCAGGGGACGGAA,-1.16
20,AAACGTATGACTTTGGAGCACTCATTCCTA,-0.815
21,GAGTGTCCTGCCCCCTGGAGGAGTGAGGGA,1.34
22,AGCAAGTTTTATATGAAAACAAAGGAAACC,-1.08
23,CAGAAGAAACATGCGATACTTGACCTGCAA,2.25
24,CTCAGGAACTTTGTTTGTGTTTCCCTCCCT,2.83
25,ATGCAACTTTTAATCAGAGCAGTTCAGCTC,-1.13

row,Sequence,binding signal (log2 normalized intensity)
1,TTCCAGCCTCCTGCTCTGGGCTTTCTCTGC,-1.24
2,TTACACAAAATCGCCACTACAAAGGGAATC,-1.07
3,TTCAACTGTGTGAGCTGATCACACCATATC,-0.498
4,GTAAAAACAACTGCCACTTATTGTGTTATG,0.718
5,CCTCCTTCCGCGGACGTGTTCCCACAGTGC,0.803
6,TAGAAACAAGACAGAATGATTCTCAGAAAC,-1.11
7,AGCAAATCCCAATTCACTGACACAAATTAT,-1.04
8,CAAGCAGAACCTTGGAGGCGGCGGCTCCGG,-1.19
9,GAGGGGGACTGGAAGGGAGAGATAAGAAAA,-1.17
10,GGGGAGCAAAGGTTAGCAAGGGCCCCCACT,2.47
11,GACCCCCACTGCCTGCCTGCCAACTCCACG,3.33
12,TCTGACCTTTGGCATTGTGTTACGTCTGGT,3.71
13,GTTAAAGGAGATAATGGGTGTAAGATACCT,-1.09
14,AGACAAGCTCTGTTTGTTTTGTTACACATC,0.945
15,AGTCCTCTCTCGCGAGAGCCGAAGTCTCTC,-1.11
16,TACTGGACAGCCAGCTGGTAAATAAAGGAA,-1.02
17,GGCCATGTCTCAGCCCAAGATCAAAAGGCA,-1.14
18,CCAAGATGCTAAGGCAAGATCATTCCAGGA,-1.11
19,AGAGGTGAGACACGTGTGCCATGCCAAAGA,-1.02
20,GGTCAGAAAAAGCTGACGCCCCACCCCCTC,5.94
21,TATTTGCTGAGGAAGACTTCATTCAGGTAG,0.263
22,CTCAAAGTTTTGTTATCTCTGCTTGCAATT,0.771
23,GACTGGTTCTTGGTCAGCTCCTGGGAGATG,0.875
24,GTATAGTGACTTCCTTCCAAAGGTCACAGT,4.85
25,TAGAAGGCAGAGAAAGATAGGAGATAAGGG,-1.2

row,Sequence,binding signal (log2 normalized intensity)
1,ATGGGGCATGACTTGTTATCACCTGCTGGA,0.237
2,AGCTATGATAAAGGTTTGGGTTGGATTTGC,1.12
3,AAAGTTCAGGTTTCAAATACTCCAGTCATT,0.224
4,GGGGGTAAAGTGGATTGCTGGCCTTTTATC,0.814
5,CAAGGAAAGATAAATAGTGACAAATTGTAT,-0.0613
6,GAAGAATAGATTCCATAGATAAGAGCTGAG,-1.13
7,GAGACAGCTCCACAGCTGGACTTTGGCTGC,5.41
8,CTATTGCAGTAACGGCAGGGTTGTGCAGGA,0.453
9,CCCTGTAAGTCCAAACAAAATACAAACACG,-0.429
10,AGAGGTCGATCTGATCTTAAGTTGTACCTG,2.6
11,AGGAGGCACTGATAAGCGTATTTCAACCTT,0.384
12,GATAGCAAAATCAATAAATCACACGAAACA,-1.15
13,AAGAGGAGAAGAATTTACCCAACTCATCAG,-1.04
14,TGCAATGTTTCCAAACCCCTCGGGACCATG,-0.67
15,CACAGCGCAGCACACTGCAGCGGCATTCTC,-1.08
16,AACTGTTTCTATGTGACCTTCACCCTGCTG,4.15
17,TAAAAAAAAAAAAAAATACTCCTATCACCG,-1.05
18,CCAGCCTGTGGTGGGAAACTTCCACTAACT,-1.14
19,GTAGGCTCTCGGGCCAGCTGTACAAATAAA,-1.21
20,GGAATGTTGCTGTGCTGCCCTCTTGTGGCC,1.66
21,GAGTCGTGGCCTTGCCATTGGAGGTCACCC,2.39
22,CCAGCATTTCTGTGGACTGCTCCAGTGGAC,1.02
23,ACCCCCCAGAGGGCCATCTAGCTTAAAGGT,1.79
24,GATCTTCATGAACTTCTGTCCACAGACTCT,-0.945
25,AAGGACATTGCCCCCTATGTAAAGGCCTTT,3.77

row,Sequence,binding signal (log2 normalized intensity)
1,AGTGGTTAAGTTTTCGAGGAGTCAAAAGGT,1.47
2,AACGAGATGGTCAAGGATCTGGCCAGGCCT,-1.15
3,CCCAAATAGACTTAAGTCTGAATTCTAGTC,-0.49
4,TAACTTGAATTGATTGCCAAGAGGGAGGGG,-1.22
5,AGGATGGAATGCTGAAGGGAAGGCTGCCGT,-1.12
6,ATATGCCGAGAATGCAGCCTTATCTTCCAG,-0.957
7,CTGTGGTCATTAATTAACTTGTGTTCAGAG,1.77
8,TTGGCAGATTAGATATATCTGTACTCAAAC,1.27
9,GGAATGTCTGACCAACCTGTCCAAAGGTCA,7.66
10,CCACAGAAACGCAGTCCTGAAAACACACAT,-1.06
11,TTCCCTTTGATCTTTCCCTTCCTGGCCAAC,1.1
12,AGAAGACAAAACAGCGTACTGTGCTAAAGA,-1.14
13,AGAGCCTAGTTCATTGCAATTACTCAATAA,-0.91
14,GAGTAAATACGAACCGTCGTAATGGCTAAG,-1
15,CCCCCGGACCCAAAGTAAACAAAGATACTC,1.99
16,CTCTGCTGATAGCATAAAGCTAGGAGACAA,-1.1
17,CGCTAACTTCCAGATCAAAGGACATTTCTA,-0.977
18,GGCAAGACTGCCACCTACTGACCAAATGGG,-1.16
19,TGGAGCCACTATTCATAAAGTTCTCTGGCA,0.197
20,TTGCAAATAAAAGTTATCACCATCAGATCT,-1.2
21,TGGTAATCTCTTTTGTGTTAGAGGGTGGTG,2.14
22,GCTAAAAGCAGCATCCCTGATAAACCTGTT,-1.1
23,CAGCTGGGGCCCAGGTCGAAGTTTATGTTT,1.76
24,GAGACAGACAGAAAACAAACATTAGCTGCA,-1.03
25,ACAGTCCACTTTGAATCAGGAGAGCATCTG,-1.17

row,Sequence,binding signal (log2 normalized intensity)
1,CTGGCTATTCAGTTTTTATTTTGTATTCTT,1.95
2,TCCCACTCTTGGGTCAACATAATATTTAGC,0.395
3,CAGCAGCTCAGTAAATTATCTTGATGGTTA,0.142
4,AACTTCTGTCCACAGACTCTGACTGTTATC,0.194
5,ATTGGCCCTTTGACCTTTAATCAAGGGCTG,5.08
6,CTTATCTTCTCCACAGATTCCTGTTAACTT,1.18
7,GACTGACCTTTGATCATTTGAGGGTGACAC,5.65
8,AACACTTACACCTGGGTGCTCCCTCCCCCT,4.36
9,ATGATAATGCCAAGGACTGAAAGAACACAG,-1.12
10,GGAAGGATGAATTTAAAAAATTCTAGAGTT,-1.17
11,TTCAAAGTTTTTCCCCTTGGTGGATTCCGT,2.19
12,TTCCTTCTTCTTCTGGGGACTTCGGTCTTT,3.34
13,TGGATGGAATGTTCTGAATCTATCTGTTAG,0.843
14,GGTTTAAAGTTCAAGTCATAACTGGATGGT,1.88
15,ACCATTAACCCTACAGTCCTGCCACATCCC,-1.24
16,ACCTAAGATGTCACAGGCAAGCAAGTGACA,-1.06
17,GCAATGTGTCAGAGAAGGAGCCAGAGCTTT,-1.03
18,TCAGACGCCCTATGGCGTCCGCCTCGACCC,1.29
19,CCGTGGACTCTGCCTGCCCTCTCCATGCAG,1.05
20,CCTCAAGGAGTTTTAGATTAGGAGAGGGAG,-1.09
21,AGGCCTCGGCTTCATTAGCAAATAACAAAG,-1.11
22,ACTCGTGAAAAGAGTGATCTTTGGGCCATA,1.98
23,ACCTGCATCTGCCCAGCAGAGCAGTTTAGA,-1.23
24,TGCAATGTTAGTCTGGGAAAGCTGCAGGCA,-1.03
25,TGCCTCTCCAAACAAATTGAGAAAGATTAA,-0.951

row,Sequence,binding signal (log2 normalized intensity)
1,CAAAAATGATACCCCAGAGTACAGCACTTT,0.584
2,AATTCCAGTTACAAACAAAACAAACTAAAC,-1.07
3,CCAAGTCTGGACCTGCTGGCTTTCTTTGGA,0.129
4,GAGAATCCCTCCCCTGTGCAAACTTTTTCC,2.04
5,GTTGAAATCCATTGTCAATACCCTGTTATT,0.783
6,CTTTGTGTACAAAGCCATCAGCACTGGTTC,-0.206
7,TTACCTAAGGAAGTTAACCCCATCACCCAT,3.3
8,TGATGAACTTTCAAGATGAAGCAAGAGTCC,0.976
9,ATCCGGCTGGCAGCCGATTGACCTGACCCA,2.96
10,GTGGGGTGGAAGCTATGCCTGAGGCTGAGG,-1.21
11,TTCTGCCCTGCCCTCAGGGAATCCTGCATT,0.806
12,TGGACTGTTCAAGACCAAAGGTCATGGCAA,4.79
13,AAACATCAAGGAAGAGAACTCCCTATCCCC,0.894
14,TGAGTTTTCCATTTACCTCCGCTGAACCTA,1.05
15,CCGTGGGGCTCCTTTGATCTCCGTGTTTGG,1.77
16,TAAAAAGAAGCTTGGTATGTCTGATGAATA,0.69
17,TTGGACTTTGACCTCCAAAATTATAAGTCA,8.25
18,TGCTGAGCAACTATAAAACAGGAAAAAGGG,-1.21
19,CTATAAATACGCCTCGCCCGAGCTGTGCGG,-1.11
20,AGTCTTCCTGTCTCCATTGCCTCACCTCTC,0.625
